Laboratory results from the supplement of paper PMC10126150.
Values marked as one replicate rest on one cluster of the flow cell; about a third of the high ones do not repeat.

System: ATP
Assay: switch fluorescence ratio, 500 uM ATP over buffer (Cy3 cluster intensity, sum of 5 cycles each) (fold (ratio)); higher = stronger signal-on switching upon ATP binding; sequences stand for … in TCGTCGGCAGCGTCAGATGTGTATAAGAGACAGTTTTTTTTTTTTTTTTTTTTTTTTT…TC
Details: aptamer strand: ATP DNA aptamer (quencher-CACCTGGGGGAGTATTGCGGAGGAAGG + anchor), 100 nM annealed; ATP concentration: 500 uM; one replicate
Summary of the method: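 Between each of five buffer/ATP cycles, the flow-cell was stripped with NaOH and re-annealed. Each cycle imaged Cy3-labelled switching-strand clusters, annealed to 100 nM quencher-labelled ATP aptamer on a modified Illumina MiSeq flow-cell, first in selection buffer and then after 15 min with 500 uM ATP at 22 °C. The fluorescence ratio is summed target-cycle over summed buffer-cycle Cy3 intensity per cluster, averaged per switch-domain sequence, with clusters outside 100-1000 RFU excluded.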
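Note: ATP exposure 15 min at 22 °C before imaging.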

| Sequence | switch fluorescence ratio |
| --- | --- |
| GAAGGAACAG | 1.03 |
| TTACATAGCT | 1.01 |
| TATAGGCAA | 1.06 |
| GTGGGGAGTA | 1.01 |
| AGCCGGTAAT | 1.02 |
| TCCGATACTT | 1.22 |
| TGAGCATGCG | 1.07 |
| CTCAAGAT | 1.12 |
| AATTTGAATG | 0.995 |
| ATATAGAGCG | 0.958 |
| GAAGAGAGTA | 1 |
| ACCGAACCGC | 2.22 |
| CTAAGAA | 0.969 |
| AAATGGCGTT | 1.01 |
| CTCTGCTAAT | 4.89 |
| TTTCAGGCTG | 1.01 |
| GCAATGGGTT | 1.02 |
| CACAGGCAGC | 0.999 |
| GTGTACCTTC | 1.34 |
| TGCAAAAAGA | 0.977 |
| CTTTTATGTT | 0.936 |
| TTAGTTGACT | 0.964 |
| GGCCAATGAG | 0.987 |
| CTCAGCCGTT | 1.07 |
| GGGGCCTGGG | 1.02 |
| CTGCGAAGGT | 1.01 |

| Sequence | switch fluorescence ratio |
| --- | --- |
| TTGTCGTAAA | 0.978 |
| ATCATATGGG | 1.02 |
| CGGGGAACCT | 0.986 |
| TGAGTAAGA | 0.968 |
| TTACCGGTTA | 0.986 |
| ACTACATCGA | 1.03 |
| TGGAATAGAG | 1 |
| CGTTTGCTGA | 0.973 |
| GACTCCACGG | 1.14 |
| CTGCGGTTGG | 1.03 |
| CGATTCGTCG | 0.937 |
| GGCTAAGGAC | 1.03 |
| TGGACGCCGG | 0.95 |
| ACGACATTCA | 1.15 |
| ATGATTCCTG | 0.911 |
| GTAGCCGTTT | 1.2 |
| GTAGTAAAAA | 1.04 |
| TTCATCATAA | 1.02 |
| TGTAATAGGT | 0.989 |
| GCGTAAGGAC | 1.1 |
| TGTGCAGGGG | 1.03 |
| GATCTTGTTG | 0.966 |
| CGACGCAGGG | 5.24 |
| CTTTGATCCA | 0.972 |
| ATGTGCGAAT | 1.04 |
| CGCGGGGATT | 1.09 |

| Sequence | switch fluorescence ratio |
| --- | --- |
| GGATTGTACT | 0.993 |
| CAAGTGACGG | 0.96 |
| TCAGTACCCC | 1.07 |
| ATTGCACATC | 1.11 |
| TCGGTCTTGT | 1.01 |
| CATAGACCGC | 1.07 |
| TTTTCTGCAG | 1.02 |
| TCTAACTTGA | 1.01 |
| CGGAGATTGC | 1.1 |
| TTCTTAGTTG | 0.953 |
| GGACGGATTA | 0.982 |
| CCGCCTGGTC | 2.09 |
| CGGAGGTGGT | 0.996 |
| TTGTATATAC | 1.02 |
| AAAGTTAGCA | 1 |
| CGAGCGTTTC | 1.13 |
| TCGGGTGAGG | 1.05 |
| TAACGTTCTA | 1.01 |
| TCATTGAGGT | 0.973 |
| AACGCGGACT | 1.2 |
| ATAGAGTCGA | 1 |
| CAGAGCTCAG | 1.05 |
| CAGGCGACAG | 0.976 |
| AGAAATTTT | 0.972 |
| TTAGCTGATC | 0.998 |
| GCCGGGACTT | 1.03 |

| Sequence | switch fluorescence ratio |
| --- | --- |
| ATGATATACA | 0.934 |
| GTAGCCAACG | 1.02 |
| CCATGGGGCC | 1.02 |
| GTCTTCTTG | 1.04 |
| TGTTACCCCC | 1.02 |
| TTCCTAGGGT | 1.1 |
| GCTTATTGGA | 0.977 |
| GGGCGAGACT | 1.02 |
| AAAATGGACT | 1.07 |
| ATTGTTCGCT | 0.985 |
| CATAAAATTG | 1.01 |
| GGGAGACGCT | 0.991 |
| GTAAGAAGT | 0.959 |
| AGTTTCGATA | 0.995 |
| AGATAGTCAG | 0.992 |
| TGTCGGTAGG | 0.975 |
| TATTTTAGAC | 0.997 |
| CACAAGGCGC | 1.01 |
| GGTACGCTGG | 0.988 |
| CCCGAGAATT | 1.01 |
| CCAATGCATG | 1.14 |
| GCAAGCTTAA | 1 |
| TAGCAGGGGT | 1.07 |
| CTGGGTAGG | 1.01 |
| TATTGATTAG | 0.992 |
| GTAAGTGTCT | 0.99 |

| Sequence | switch fluorescence ratio |
| --- | --- |
| AATATAGGAG | 0.962 |
| ACCGTATTGT | 1.16 |
| GCTGTACTTG | 1 |
| CTCCTCTCGT | 1.21 |
| ATACAAAGGC | 1.03 |
| AAGTATATT | 0.993 |
| TTAAAGCTAG | 0.993 |
| GTGCTCCTCT | 0.983 |
| AAGTGGTT | 1 |
| CACTATTTT | 0.966 |
| GGCGCAAGGC | 4.51 |
| AAGAAACTGC | 1.07 |
| ACTTGTGGA | 0.994 |
| TAGCCGATTG | 0.95 |
| TATCTTCGAC | 0.995 |
| TTCCCGTGTC | 2.2 |
| GGTGAGCCTC | 0.989 |
| CAATCTTCTG | 1.12 |
| TTCAAGCAAT | 2.71 |
| ATGATATAAT | 1 |
| TAAGATCCAT | 1.03 |
| ATATTATCTG | 1.02 |
| AAAACGGGGT | 0.961 |
| GGGGAGCAAA | 1 |
| TAATTGGACC | 1.01 |
| AGTCTTTTGA | 1.01 |

| Sequence | switch fluorescence ratio |
| --- | --- |
| GAAGTCTTTG | 1.02 |
| GGCCCTGTAC | 1.16 |
| GTACGCGACG | 1.14 |
| TCTGGGTCAT | 0.993 |
| CAATTTACTG | 1.01 |
| ATTGGAAATA | 1.01 |
| CTGAACCGGG | 1.04 |
| ATTTCTCCTC | 1.03 |
| AAAGTAAGTT | 1.02 |
| AAGCATGT | 1.09 |
| CCACGAACG | 1.38 |
| GAATACCGTT | 0.932 |
| ACAGACGGTA | 1.22 |
| TAACCCACGG | 1.16 |
| ATCAAGGCCA | 1 |
| GACTACTCTA | 1.08 |
| TTACGGTACG | 1.03 |
| TTTGCATT | 1.09 |
| GTTTTGGCCT | 1.08 |
| AGCTGGCTGG | 1.01 |
| AACGTGCCGG | 1 |
| CGTAGAGGAC | 0.973 |
| CCTCACACTC | 4.44 |
| GTACTTCGC | 1.14 |
| TTTCCGAAAA | 1.01 |
| CCATGCACGT | 1.1 |

| Sequence | switch fluorescence ratio |
| --- | --- |
| ACGGCCGGG | 1.01 |
| ATCCTCGGGC | 1.04 |
| GTTCTCACAG | 1 |
| AGCGGCAAG | 0.984 |
| TAATAAAGCG | 0.984 |
| TTCGCACTAG | 1.3 |
| GTCGGAAAAC | 1.16 |
| TTGAAGTAAC | 0.999 |
| TAATATTTTC | 0.968 |
| TCCGGGCTTA | 1.19 |
| GAAGGACCGT | 1.03 |
| CGGACCACCA | 1.12 |
| TCCTATGTA | 1.01 |
| CTAGCTAGAG | 1.05 |
| CCAGTGGCCA | 0.982 |
| AGGGGATACC | 1.01 |
| GAGGATCGAT | 0.986 |
| GAAAACGTTC | 0.96 |
| AGCAGCTCTG | 0.972 |
| CCTTAGAGGG | 0.993 |
| TTGAAGCGTG | 0.995 |
| TGCGGTAAAT | 2.14 |
| CCTATGAGCT | 1.06 |
| ATCTTCAGGA | 0.976 |
| GGCTTTTCGT | 0.987 |
| TGGAAACACT | 1.04 |

| Sequence | switch fluorescence ratio |
| --- | --- |
| TGGAAGAAGA | 1.1 |
| TGTTGGATTA | 1.12 |
| CACTCCCTTT | 1.23 |
| GATTTCACGA | 1.03 |
| CATAGTAAGT | 1.01 |
| GGCATCGACT | 1.06 |
| AGGTGGGCC | 1.02 |
| GTATTGGCTT | 1 |
| GGGTTACCGG | 0.981 |
| GGGGCTGTT | 1.06 |
| AATTTCAGCG | 0.968 |
| GGATGTTATC | 0.97 |
| GGATGCATGG | 1.04 |
| TCAGTCACAC | 1.06 |
| CGGGGTTCAT | 0.99 |
| TTGAGTAGAA | 1.01 |
| AAATCGAGCA | 1.03 |
| TATACAGTG | 0.995 |
| CTTGACACTG | 1.02 |
